From the supplement of paper PMC4723716
± gives the uncertainty stated by the source. Whole data set: some 9,900 compounds, median “viability index relative to DMSO control” near 1, cut for the lowest 2% near 0.85. This is one part of the list.

Each compound was assayed on Plasmodium falciparum NF54 stage V gametocytes (assay: viability index relative to DMSO control (fraction); higher = less gametocyte killing). Conditions: 2.5 µM, library set: Broad Institute DOS, incubation time: 72 h.
Summary of the method: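 Gametocytes (P. falciparum NF54, stage V) were treated with compound at 2.5 µM for 72 hr at 37°C in low oxygen, in serum-free medium at 0.75% gametocytemia and 1.25% hematocrit. Counts of 20–70 µm2 red particles, taken from one field per well after MitoTracker Red CMXRos with saponin, were divided by the plate mean of solvent-only wells. This ratio is the viability index.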

SMILES | viability index
COc1cccc(NC(=O)Nc2ccc3c(c2)C(=O)N(C)C[C@H](OC)[C@@H](C)CN[C@@H](C)CO3)c1 | 1.021 ± 0.0027
O=C(C1CCOCC1)N1[C@@H](CO)[C@@H](c2ccccc2)C12CN(Cc1cccc(Cl)c1)C2 | 1.103 ± 0.0018
O=C(C[C@@H]1C=C[C@H](NC(=O)C2CCC2)[C@H](CO)O1)NC1CCCCC1 | 0.999 ± 0.027
CO[C@H]1CN(C)C(=O)c2ccc(NC(=O)Nc3cc(F)ccc3F)cc2OC[C@@H](C)N(C(=O)c2ccccn2)C[C@@H]1C | 1.0784 ± 0.00021
CC(C)NC(=O)N1[C@@H](CO)[C@@H](c2ccccc2)C12CN(Cc1cc(F)cc(F)c1)C2 | 1.11 ± 0.063
COCC(=O)N1CC(=O)N2[C@H](C1)[C@@H](c1ccc(-c3ccccc3F)cc1)[C@@H]2CO | 1.008 ± 0.0011
CCCNC(=O)N1CC(=O)N2[C@H](C1)[C@H](c1ccc(-c3ccc(F)cc3)cc1)[C@@H]2CO | 1.06 ± 0.09
Cc1ccccc1-c1ccc([C@H]2[C@@H]3CN(Cc4cocn4)C[C@H]2N3)cc1 | 0.918 ± 0.0095
O=C(C[C@@H]1CC[C@@H](NC(=O)c2ccc3c(c2)OCO3)[C@H](CO)O1)NCc1ccc(Oc2ccccc2)cc1 | 1.11 ± 0.16
COc1ccc2c3c([nH]c2c1)[C@H](CO)N(Cc1cc(F)ccc1F)C[C@]31CN(C1)C(=O)C1CCC1 | 0.9961 ± 0.0055
COC(=O)C[C@H]1CC[C@H]2[C@@H](COC[C@H](O)CN2S(=O)(=O)c2ccccc2OC)O1 | 1.01 ± 0.052
CCC(=O)N1Cc2cc(C(=O)NCCOC)nc(-c3cccc(-c4ccc(C#N)cc4)c3)c2[C@@H]1CCO | 1.06 ± 0.028
C[C@@H]1CN([C@@H](C)CO)C(=O)c2ccccc2-c2ccccc2CO[C@H]1CN(C)S(=O)(=O)c1ccc([N+](=O)[O-])cc1 | 1.011 ± 0.003
CS(=O)(=O)N1CC2(C1)[C@@H](c1ccccc1)[C@@H](CO)N2Cc1ccccc1 | 1.09 ± 0.012
CN(C)C(=O)C[C@@H]1C=C[C@@H](NC(=O)c2ccc(F)cc2)[C@H](CO)O1 | 1.05 ± 0.075
CN1C(=O)c2cc(NC(=O)c3ccc(C(F)(F)F)cc3)ccc2OC[C@H]2O[C@H](CC(=O)NCc3ccc4c(c3)OCO4)CC[C@H]21 | 1.09 ± 0.0048
C(=C\c1ccc([C@H]2[C@H]3CNC[C@@H]2N3Cc2cncnc2)cc1)/c1ccccc1 | 1.09 ± 0.073
C[C@@H]1CN([C@H](C)CO)C(=O)CCCn2cc(nn2)CO[C@H]1CN(C)S(=O)(=O)c1ccc(-n2cccn2)cc1 | 1.1 ± 0.049
COC(=O)C[C@@H]1C[C@@H]2c3cc(N)ccc3O[C@@H]2[C@H](CO)O1 | 1.07 ± 0.074
O=C(C[C@@H]1C[C@@H]2c3cc(NS(=O)(=O)c4ccccc4)ccc3O[C@@H]2[C@H](CO)O1)NCC(F)(F)F | 1.067 ± 0.0094
COCC#Cc1ccc([C@H]2[C@@H](CO)N3CCCCN(C(=O)NC4CCCC4)C[C@@H]23)cc1 | 1.049 ± 0.0079
CO[C@H]1CN(C)C(=O)c2ccc(NC(=O)c3ccccc3F)cc2OC[C@@H](C)N(C)C[C@H]1C | 1.04 ± 0.077
O=C(C[C@@H]1C=C[C@@H](NC(=O)Cc2cccnc2)[C@@H](CO)O1)NCc1ccc2c(c1)OCO2 | 1.1 ± 0.041

SMILES | viability index
O=C(C[C@H]1C[C@@H]2c3cc(NS(=O)(=O)c4ccc(F)cc4)ccc3O[C@@H]2[C@@H](CO)O1)NCc1cccnc1 | 1.11 ± 0.017
COCCN(C[C@H]1[C@H](c2ccccc2)[C@@H](CO)N1C(C)=O)C(=O)c1cccnc1 | 0.961 ± 0.057
COCCNC(=O)[C@H]1[C@H](CO)[C@H]2Cn3c(ccc(C4=CCCCC4)c3=O)[C@@H]1N2Cc1cocn1 | 1.06 ± 0.018
Cc1noc(C)c1S(=O)(=O)Nc1ccc2c(c1)C(=O)N([C@H](C)CO)C[C@H](C)[C@H](CN(C)C(=O)Nc1cccc3ccccc13)OCCCC[C@@H](C)O2 | 1.04 ± 0.084
C[C@@H]1CN([C@H](C)CO)C(=O)c2ccccc2-c2ccccc2CO[C@H]1CN(C)C(=O)Nc1ccc(-c2ccccc2)cc1 | 0.923 ± 0.048
O=C1CCCn2cc(nn2)COC[C@@H](c2ccccc2)N1 | 1.04 ± 0.053
COC(=O)C[C@@H]1C[C@H]2c3cc(N)ccc3O[C@H]2[C@H](CO)O1 | 1.05 ± 0.073
COc1ccc2c3c([C@@H](CO)NC[C@]33CCN(CC3)C(=O)Nc3ccc(F)cc3F)n(C)c2c1 | 1.06 ± 0.037
CCc1nc(N2[C@H](C#N)[C@@H](c3ccccc3-c3ccccc3C)[C@@H]2CO)sc1C | 1.07 ± 0.088
COc1ccccc1C#Cc1ccc([C@@H]2[C@@H](CO)N3CCCCN(C(=O)C4CCC4)C[C@H]23)cc1 | 0.9445 ± 0.007
CC(C)CC#Cc1ccc([C@H]2[C@H](CO)N3C(=O)CN(S(=O)(=O)c4cccc(F)c4)C[C@@H]23)cc1 | 0.987 ± 0.021
N#C[C@H]1[C@@H](c2ccc(-c3cccc(F)c3)cc2)[C@@H](CO)N1c1nc(-c2ccccc2)cs1 | 1.08 ± 0.1
COc1ccc(NC(=O)N(C)C[C@H]2OCCCC[C@@H](C)Oc3ccc(NC(=O)c4ccncc4)cc3C(=O)N([C@@H](C)CO)C[C@H]2C)cc1 | 1.09 ± 0.019
C[C@@H]1CN([C@@H](C)CO)C(=O)c2cc(NS(C)(=O)=O)ccc2O[C@@H](C)CCCCO[C@@H]1CN(C)C(=O)Cc1ccccc1 | 1.11 ± 0.032
COc1ccc2c3c([nH]c2c1)[C@@H](CO)N(C[C@]31CCN(CC1)C(=O)c1ccc2OCOc2c1)C(C)=O | 0.989 ± 0.061
COC(=O)C[C@@H]1C[C@@H]2c3cc(NC(=O)c4ccc5c(c4)OCO5)ccc3O[C@@H]2[C@H](CO)O1 | 0.991 ± 0.033
CO[C@@H]1CC[C@@H]2CCOc3ccc(C#N)cc3C(=O)N(C)[C@H](C)C(=O)N(C)C[C@H]1O2 | 1.1 ± 0.021
C[C@@H](NC(=O)C[C@@H]1CC[C@@H]2[C@H](COc3ccc(NC(=O)C4CCOCC4)cc3C(=O)N2C)O1)c1ccccc1 | 1.145 ± 0.011
COc1cccc(C(=O)Nc2ccc3c(c2)OC[C@H](C)N(CCc2ccccc2)C[C@@H](C)[C@@H](OC)CN(C)C3=O)c1 | 1.13 ± 0.12
C[C@@H]1CN([C@H](C)CO)C(=O)Cc2cc(N(C)C)ccc2O[C@H]1CN(C)Cc1ccc(-c2ccccc2)cc1 | 0.954 ± 0.039
CNC[C@H]1Oc2c(NS(=O)(=O)c3ccc(Cl)cc3)cccc2C(=O)N([C@@H](C)CO)C[C@@H]1C | 0.893 ± 0.14
COc1cccc(-c2ccc3c(c2)[C@H]2[C@H](CCN2S(=O)(=O)c2ccccc2F)[C@H](CO)N3)c1 | 0.941 ± 0.061
C[C@@H]1CN([C@@H](C)CO)C(=O)CCCn2nncc2CO[C@H]1CN(C)Cc1cccc(C(F)(F)F)c1 | 1.09 ± 0.031
